Test results from PubChem BioAssay AID1688 (National Center for Advancing Translational Sciences (NCATS), 2009).
Among all 220,000 compounds or so, about 2,400 (1.1%) were called active. Not shown: some 7% with an inconclusive outcome. Calls follow the shape of the dose curve; as a rule, active = well fitted inhibition curve with a large enough effect; inconclusive = small, poorly fitted or top-dose-only effect, or effect the other way; inactive = no such curve, though single readings can be large or run the other way. The list shows a part of the results, in another mix than the full data. Some compounds were tested as several samples or in several runs, with calls that do not always agree.

Test: qHTS Multiplex Assay to Identify Dual Action Probes in a Cell Model of Huntington: Aggregate Formation (GFP)
Conditions: PC12 HttQ103-GFP aggregates, Acumen cytometry, 40 h; series mostly up to 46.1 µM; activity change, negative = inhibition: at the top concentration
Excerpt: NIH Chemical Genomics Center [NCGC]
NIH Molecular Libraries Probe Production centers Network [MLPCN]
Assay Submitter (PI): Wei Zheng
Huntington's disease is a neurodegenerative disorder caused by a trinucleotide repeat expansion in Exon 1 of the Huntingtin gene. The CAG trinucleotide encodes glutamine and polyglutamine expansions cause cell death in selective areas of the brain. Huntington polyglutamine repeats have the tendency to form aggregates which are observable in later stages of the disease. The exact nature of the aggregates, whether toxic, protective, or insignificant, is unclear.
A stable PC12 cell line containing a gene fusion of Exon 1 of the Huntingtin gene linked to GFP under the control of the inducible ecdysone promoter were used as the cell-based model of Huntington Disease for high throughput screening. Exon 1 of the Huntingtin gene contained an expansion of 103 polyglutamines (Q103) which, when expressed, caused cell death and distinct, bright GFP aggregates. The amount of cell death and the size and intensity of GFP aggregates increased over time and induction level. The cell death were quantified with a measurement of ATP content in the cells. A maximal 40-50% of cell death was observed when the Huntington gene was induced in this cell line.
We optimized this assay in a homogeneous 1536 well format. A quantitative high throughput screen (qHTS) was conducted on the PC12 cells which were induced to express the toxic fusion construct. Small molecules which reduced aggregate formation were identified bu using a laser scanning cytometer calibrated to detect the aggregates in cell lysates.
PC12 cells stably containing a construct with an ecdysone inducible promoter expressing GFP fused to the exon 1 of HTTQ103 (Huntington protein which containing a 103 ployglutamine expansion) were used.
NCGC Assay Protocol Summary:
Sequence, Parameter, Description
1, Reagent, 5 uL 1500 cells/well 1536 TC treated White clear bottom plate
2, Compound, 23 nL Tebufenozide inducer (100 nM final) to all columns
3, Compound, 23 nL 40 uM to 0.5 nM Libraries
5, Reagent, 5 ul ATPLite cell death assay reagent
6, Detector, Aggregate quantitation by Acumen Explorer
Media consisted of phenol red free DMEM + 5% equine serum (Hyclone # SH30072.03 ), 5% supplemented Bovine Calf Serum (Hyclone # SH30074.03 ), 1x pen/strep, no G418
Acumen Explorer was used to quantitate GFP aggregates using the following criteria: […] laser excitation, 500-530 nm emission, the PMT was set at a voltage of 450 volts, and objects ranging in size of […] in size having a signal of 6 STDEV above background were collected.
Control columns: 1 = DMSO, 2= 2 uM teb dilns (1:1), 4 = 100 nM Teb inducer. Sample columns received 100 nM Teb.
% is scaled to controls: 0 for no effect and ±100 for the full control effect; potency is read from the fitted curve at half-maximal effect.

Row | Compound | activity change, negative = inhibition | Potency
1 | CN1CCN(CCCN2c3ccccc3Sc3ccc(C(F)(F)F)cc32)CC1 | inactive: -39.7% | 
2 | CCCCCCCCCCCCCCC[C@H](O)[C@H](N)CO | inactive: -0.249% | 
3 | O=C(CSc1nc2ccccc2[nH]1)N/N=C/C=C\c1ccccc1[N+](=O)[O-] | inactive: -8.04% | 
4 | O=C(NCc1cccnc1)/C(=C\c1ccc(-c2cccc(Cl)c2)o1)S(=O)(=O)c1ccccc1 | inactive: -7.67% [at 9.22 µM] | 
5 | C[C@@H](C(=O)NCc1ccccc1)[C@@H]1C[C@@]1(C)[C@@H](NC(=O)OCc1ccccc1)c1ccccc1 | inactive: -7.96% | 
6 | Nc1nc(Cl)nc2c1ncn2[C@H]1C[C@H](O)[C@@H](CO)O1 | inactive: -39.6% | 
7 | Cn1c(=O)c2c(nc(Oc3ccccc3)n2C)n(C)c1=O | inactive: -38.4% [at 9.22 µM] | 
8 | Cc1ccc(C(=O)NN2C(=O)C3C4c5ccccc5C(c5ccccc54)[C@@H]3C2=O)cc1 (stereo partly specified) | inactive: 30.9% | 
9 | OC(C#Cc1ccccn1)c1cccs1 (stereo unspecified) |  | active: 5.01 µM
10 | O=C1C2C(C(=O)N1CCN1CCN(Cc3ccc([N+](=O)[O-])cc3)CC1)[C@H]1C=C[C@@H]2C1 (stereo partly specified) | inactive: 16.1% [at 9.22 µM] | 
11 | CSc1ccc2c(c1)C(N1CCN(C)CC1)Cc1ccccc1S2 (stereo unspecified) | inactive: -21.2% [at 9.22 µM] | 
12 | C/C(=N\NC(=O)CNC(=O)C(c1ccccc1)c1ccccc1)c1ccc(C)cc1 |  | active: 12.6 µM
13 | O=C1c2ccccc2C(=O)C12OC2c1ccc(Cl)cc1 (stereo unspecified) |  | active: 31.6 µM
14 | O=C1NCCc2c1[nH]c1ccccc21 | inactive: 2.65% | 
15 | N#C/C(=C/C=C/c1ccccc1)C(=O)Nc1ccccc1 | inactive: -24.7% | 
16 | CCOCCCNc1ncnc2c1[nH]c1ccccc12 |  | active: 10 µM
17 | COC(=O)/C=C/S(=O)(=O)c1ccc(NC(C)=O)cc1 |  | active: 10 µM
18 | Nc1ncnc2c1ncn2[C@@H]1O[C@H](CO)[C@@H](O)[C@H]1O |  | inactive
19 | O=C(NCc1nc2ccccc2[nH]1)C1=C[C@@H](C2CC2)C[C@@H](OCc2ccc(CO)cc2)O1 | inactive: 3.86% [at 9.22 µM] | 
20 | CNCCCC12CCC(c3ccccc31)c1ccccc12 |  | inactive
21 | CC(=O)C1=C(C)N(Cc2ccccc2)C(=O)N[C@@H]1c1cccc(C(F)(F)F)c1 | inactive: -0.763% | 

Row | Compound | activity change, negative = inhibition | Potency
22 | O=C(Cc1ccc(Cl)cc1)Nc1ccc(N2CCN(C(=O)c3ccco3)CC2)c(Cl)c1 |  | active: 10 µM
23 | CC(Cc1ccccc1)N/C=C1\CC(=O)NC1=O (stereo unspecified) | inactive: 20.9% | 
24 | CC1=CC(C)=Nc2ccc(C)cc2N1 | inactive: 0.918% | 
25 | CCCN1C(=O)S/C(=C/c2ccc(N3CCOCC3)o2)C1=O | inactive: 6.69% [at 9.22 µM] | 
26 | Nc1cc(-c2ccccc2)ccc1O | inactive: 2.99% [at 9.22 µM] | 
27 | CN1CCN(c2ccccc2NC(=O)Cc2cn(C)c3ccccc23)CC1 |  | active: 25.1 µM
28 | O=S(=O)(NC1CC1)c1ccc(S(=O)(=O)N2CCCC(c3nc(-c4cccnc4)no3)C2)cc1 (stereo unspecified) |  | active: 11.2 µM
29 | C[C@@H](C(=O)NCCc1c[nH]c2ccccc12)[C@@H]1C[C@@]1(C)[C@@H](NC(=O)OCc1ccccc1)c1ccccc1 | inactive: 8.73% | 
30 | CCN(CC)C(=S)SSC(=S)N(CC)CC | inactive: 1.81% | 
31 | Cc1ccc(NC2=CC(=O)C(=O)c3ccccc32)cc1 |  | active: 10 µM
32 | COC(C/C=C/[C@@H](O)COCc1ccccc1)OC | inactive: -4.79% [at 9.22 µM] | 
33 | N[C@@H](Cc1c[nH]c2ccccc12)C(=O)O | inactive: -5.43% [at 9.22 µM] | 
34 | Cn1ncc2c(NCc3ccccc3)ncnc21 | inactive: -12.4% | 
35 | CC(=C\C(=O)O)/C(=C/c1ccccc1)C(=O)O | inactive: -0.596% | 
36 | Nc1c2ccccc2nc2ccccc12 | inactive: 6.95% [at 9.22 µM] | 
37 | CC(C)c1ccc(-n2c(-c3ccccc3)c[n+]3c2CCc2ccccc2-3)cc1 |  | active: 1.58 µM
38 | COc1cccc(Nc2nc(NCC3CCCO3)c3ccccc3n2)c1 (stereo unspecified) |  | active: 10 µM
39 | COC(C[C@@H]1O[C@@H]1[C@@H](O)[C@H](C)OCc1ccccc1)OC | inactive: 31.1% [at 9.22 µM] | 
40 | COc1ccc2c(c1)c1ccccc1n2C |  | active: 12.6 µM
41 | O=C(Nc1ccc(Oc2ccccc2)cc1)C1CCN(c2c3c(nc4ncnn24)CCC3)CC1 |  | active: 8.91 µM
42 | O=C(CCN1C(=O)COc2ccccc21)NCCCN1CCN(c2ccccc2F)CC1 |  | active: 3.16 µM

Row | Compound | activity change, negative = inhibition | Potency
43 | CN1/C(=C/C(=O)c2cccs2)Sc2ccccc21 | inactive: -5.66% | 
44 | Cn1c(NC(=O)/C=C\c2ccccc2)cc(=O)n(C)c1=O | inactive: 0.909% | 
45 | C=C(CC)C(=O)c1ccc(OCC(=O)O)c(Cl)c1Cl | inactive: 43.7% | 
46 | O=C(COc1ccc(Br)cc1CNCCc1ccccc1)NCc1ccccc1 |  | active: 12.6 µM
47 | COC(C/C=C\[C@@H](O)COCc1ccccc1)OC | inactive: 16.2% [at 9.22 µM] | 
48 | CN1C2CCC1CC(OC(=O)c1c[nH]c3ccccc13)C2 (stereo unspecified) | inactive: -27.5% | 
49 | Cn1c(=O)oc2cc(S(=O)(=O)Nc3ccc4c(c3)OCCO4)ccc21 |  | active: 35.5 µM
50 | CC(=O)c1ccc(N/N=C(/C(N)=O)C2=NC(C)(C)Cc3ccccc32)cc1 |  | active: 11.2 µM
51 | COC(C[C@@H]1O[C@@H]1[C@H](O)COCc1ccccc1)OC | inactive: 19.8% [at 9.22 µM] | 
52 | CN1CCC(=C2c3ccccc3C=Cc3ccccc32)CC1 | inactive: 8.24% | 
53 | Cc1ccc2nc(-c3ccc(SCC(=O)Nc4nnc(C)s4)nc3)[nH]c2c1 |  | active: 15.8 µM
54 | COc1ccc(/C=C2/CCCC(C(=O)C(F)(F)F)=C2O)cc1OC | inactive: -15.4% [at 9.22 µM] | 
55 | CC(=O)n1cc([C@H]2C=C(C(=O)NCc3ccccc3)O[C@@H](OCCCCO)C2)c2ccccc21 | inactive: -9.5% [at 9.22 µM] | 
56 | CCC(=O)/C=C1\Sc2ccccc2N1CC | inactive: -1.12% | 
57 | COC(C[C@@H]1O[C@@H]1[C@@H](O)COCc1ccccc1)OC | inactive: -5.39% [at 9.22 µM] | 
58 | C=C(C)CC1N(c2cccc(OC)c2)C(=O)C2C(C(=O)O)C3C=CC21O3 (stereo unspecified) | inactive: -12.8% | 
59 | O=C1N=C(N2CCOCC2)S/C1=C/c1ccc(-c2ccccc2Cl)o1 | inactive: -3.65% | 
60 | CCOC(=O)CN1C(=O)N[C@@H](c2ccc(Br)cc2)C(C(C)=O)=C1C | inactive: -0.131% | 
61 | CC[C@]1(O)CC2CN(CCc3c([nH]c4ccccc34)[C@@](C(=O)OC)(c3cc4c(cc3OC)N(C=O)[C@H]3[C@@](O)(C(=O)OC)[C@H](OC(C)=O)[C@]5(CC)C=CCN6CC[C@]43[C@@H]65)C2)C1 (stereo partly specified) | inactive: -33% [at 9.22 µM] | 
